# Source: PubChem BioAssay AID504466 (National Center for Advancing Translational Sciences (NCATS), 2011)
# Among all 330,000 compounds or so, about 4,200 (1.3%) were called active. This list was built around the results that the source calls inconclusive (neither active nor inactive); the mix of calls is not that of the screen. Calls come from the whole dose curve; as a rule, active = well fitted activation curve with a large enough effect; inconclusive = small, poorly fitted or top-dose-only effect; inactive = no such curve, though single readings can be large or run the other way. Potencies of inconclusive entries are doubtful fits and often do not repeat.
# Assay: qHTS screen for small molecules that induce genotoxicity in human embryonic kidney (HEK293T) cells expressing luciferase-tagged ELG1; note: nearly all actives have a fitted effect of over 60% in size
# Details: HEK293T ELG1-luciferase reporter, luminescence, 16 h; series mostly up to 46 µM
# How it was run: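 Step 1: seed 2,000 HEK293T ELG1-luciferase cells per well. Step 2: add compound or DMSO, incubate 16 hr at 37 °C. Step 3: ONE-Glo, 30 min at room temperature, read luminescence.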
# Potency is the fitted concentration of half-maximal effect; tags give direction and shape of the fitted curve.
row,SMILES,Potency
1,C=CCOc1c(Br)cc(/C=N/Nc2ccc(C(=O)O)cc2)cc1OCC,"inconclusive: 13 µM [activator, partial curve]"
2,COCC(=O)Nc1cc(C(=O)NCCc2ccccc2)ccc1Cl,"inconclusive: 5.17 µM [activator, full curve]"
3,CC(=O)c1ccc(NC(=S)N2CCCCCC2)cc1,"inconclusive: 14.6 µM [activator, partial curve, poor fit]"
4,Clc1ccc(/C=C/c2nc3ccccc3[nH]2)cc1,active: 0.58 µM
5,COC(=O)c1cccc(-c2noc(-c3ccccc3F)n2)c1,"inconclusive: 2.59 µM [activator, full curve]"
6,Cc1ccc(NC(=O)C2Cc3ccccc3O/C2=N\O)cc1C (stereo unspecified),"inconclusive: 18.3 µM [activator, single point]"
7,O=C(NCCc1cccc(Cl)c1)c1cccs1,"inconclusive: 7.3 µM [activator, partial curve]"
8,CCc1c(C)nc2cc(-c3ccc(Cl)cc3)[nH]n2c1=O,"inconclusive: 11.6 µM [activator, partial curve, poor fit]"
9,CSc1ccccc1NC(=O)c1ccc(N2CCCC2=O)cc1,"inconclusive: 11.6 µM [activator, partial curve, poor fit]"
10,COc1ccc(NS(=O)(=O)c2cc(NC(=O)c3cc(=O)c4ccccc4o3)ccc2OC)cc1,inactive
11,Cc1c(C)c2ccc(OC(C)C(=O)N3C[C@H]4C[C@@H](C3)c3cccc(=O)n3C4)c(C)c2oc1=O (stereo partly specified),"inconclusive: 16.4 µM [activator, single point]"
12,CCOC(=O)C(CC)Sc1nc2c(c(=O)[nH]c(=O)n2C)n1CCc1ccccc1 (stereo unspecified),inactive
13,Cc1ccc(-c2nc3ccccc3s2)cc1NC(=S)NC(=O)c1ccccc1,"inconclusive: 18.4 µM [activator, partial curve, poor fit]"
14,O=C(CSCc1cccc(F)c1)NCc1ccccc1,"inconclusive: 23.1 µM [activator, partial curve, poor fit]"
15,Cc1ccccc1S(=O)(=O)c1c(C)cc(-c2ccccc2)[nH]c1=O,inactive
16,O=c1c(=NNc2ccccc2Cl)c(=O)c2ccccc12,"inconclusive: 0.82 µM [activator, partial curve, poor fit]"
17,O=C(NCCc1cccc(Cl)c1)c1cccnc1,"inconclusive: 18.4 µM [activator, single point]"
18,Cc1c(C(=O)N2CCc3ccccc32)oc2c1C(=O)CC(C)(C)C2,active: 3.26 µM
19,COc1cc(C)ccc1NC(=O)Cc1csc(NC(=O)Nc2ccccc2OC)n1,inactive
20,CCOC(=O)C1CCN(C(=O)c2cc3cc4ccc(OC)cc4nc3o2)CC1,"inconclusive: 1.16 µM [activator, full curve, poor fit]"
21,COc1ccc(/C=C(\C#N)C(=O)Nc2cc(C)c(Cl)cc2OC)cc1O,"inconclusive: 16.4 µM [activator, partial curve, poor fit]"
22,CCn1ncc(/C=N\NC(=O)c2csc3ccccc23)c1C,"inconclusive: 20.6 µM [activator, partial curve, poor fit]"
23,C=C(C)C(=O)OCC(O)COc1ccc(C(C)(C)c2ccc(OCC(O)COC(=O)C(=C)C)cc2)cc1 (stereo unspecified),"inconclusive: 20.6 µM [activator, single point]"
24,Cc1cccnc1NC(=O)Nc1cccc(C(F)(F)F)c1,"inconclusive: 18.4 µM [activator, partial curve, poor fit]"

row,SMILES,Potency
1,COc1cccc(/C=C2\SC(N3CCCC(C)C3)=NC2=O)c1OC (stereo unspecified),"inconclusive: 18.3 µM [activator, partial curve, poor fit]"
2,CCS(=O)(=O)N1Cc2ccccc2CC1C(=O)Nc1nc2ccc(F)cc2s1 (stereo unspecified),"inconclusive: 8.2 µM [activator, partial curve, poor fit]"
3,CCOc1ccc(S(=O)(=O)N2CCN(Cc3ccco3)CC2)cc1,inactive
4,O=C(c1cc(-c2ccc(Br)cc2)nc2ccccc12)N1CCN(c2ccccc2O)CC1,inactive
5,Cn1nccc1C(=O)Nc1sc2c(c1C(N)=O)CCCC2,"inconclusive: 20.6 µM [activator, partial curve, poor fit]"
6,O=C(CN1C(=O)COc2ccccc21)Nc1ccc(F)cc1,"inconclusive: 11.6 µM [activator, partial curve, poor fit]"
7,O=[N+]([O-])c1cc(Cl)ccc1-c1nc(-c2ccccc2)no1,"inconclusive: 3.26 µM [activator, full curve]"
8,O=C(COc1ccccc1)Nc1ccc2c(c1)nc1n2CCOC1,"inconclusive: 23.1 µM [activator, partial curve, poor fit]"
9,O=C1CC(c2ccc3c(c2)OCO3)Sc2nc3ccccc3n21 (stereo unspecified),"inconclusive: 1.3 µM [activator, partial curve]"
10,O=C(N/N=C/c1ccccc1Cl)c1cccc(F)c1,"inconclusive: 5.17 µM [activator, partial curve]"
11,O=C(CN1CC(=O)Nc2ccccc21)NCCc1ccc(Cl)cc1Cl,inactive
12,O=C(COc1ccc(Cl)cc1)Nc1ccccc1Cl,"inconclusive: 23.1 µM [activator, single point]"
13,CCOC(=O)CC(=O)CSc1ncnc2c1cnn2-c1ccccc1,"inconclusive: 25.9 µM [activator, single point]"
14,CCN(CC)c1ccc(/C=N/NC(=O)c2ccoc2C)c(O)c1,active: 16.4 µM
15,COc1ccc(Cl)cc1NC(=O)Nc1cc(C)on1,active: 1.3 µM
16,Cc1ccccc1C(=O)NCCCCc1ccccc1,inactive
17,Cn1c(CNc2ccccc2)nc2ccccc21,"inconclusive: 8.2 µM [activator, partial curve]"
18,Cc1ccccc1-c1noc(-c2ccc(O)cc2)n1,"inconclusive: 3.66 µM [activator, single point]"
19,COc1ccc(C)cc1NC(=O)COC(=O)CCC(=O)c1cccs1,inactive
20,O=c1c2ccccc2oc2c1ccc1ccccc12,"inconclusive: 9.2 µM [activator, partial curve]"
21,COc1ccc(CNC(=O)c2cc3cccc(O)c3oc2=N)cc1,"inconclusive: 29.1 µM [activator, partial curve, poor fit]"
22,COc1ccc(C(=O)Nc2ccc3ccccc3n2)c(OC)c1OC,active: 0.326 µM
23,CC(N=Cc1nc(-c2ccccc2)oc1O)c1ccccc1 (stereo unspecified),"inconclusive: 32.6 µM [activator, partial curve, poor fit]"
24,CCC(=O)Nc1ccc2c(c1)ncn2-c1ccc(OC)cc1,active: 18.4 µM

row,SMILES,Potency
1,Cc1cc(C)n(CCc2nc(-c3ccc(-c4ccccc4)cc3)cs2)n1,"inconclusive: 29.1 µM [activator, single point]"
2,CC(C)c1ccc(NC(=O)c2n[nH]c(=O)c3ccccc23)cc1,"inconclusive: 6.51 µM [activator, partial curve, poor fit]"
3,COc1ccc2cc(C(=O)NC3CCCCC3)c(=O)oc2c1,"inconclusive: 6.51 µM [activator, single point]"
4,O=C(Nc1ccc(Br)cc1)c1ccccc1Br,"inconclusive: 8.2 µM [activator, partial curve]"
5,O=C(CSc1nnc(-c2ccc(C(F)(F)F)cn2)o1)Nc1cccc(Cl)c1,"inconclusive: 9.2 µM [activator, partial curve, poor fit]"
6,Cc1cc(C)n2nc(-c3sccc3-n3c(C)ccc3C)cc2n1,"inconclusive: 14.6 µM [activator, partial curve, poor fit]"
7,Cc1ccc(N(C(=O)CCl)C(C(=O)NC2CCCCC2)c2cccnc2)cc1C (stereo unspecified),inactive
8,COc1ccc(C2CC(c3c(O)cc(C)oc3=O)=NCCS2)c(OC)c1 (stereo unspecified),active: 10.3 µM
9,O=C(NC1=NC2CCCCC2N1)c1ccccc1 (stereo unspecified),active: 0.58 µM
10,CN(C)c1ccc(C(=O)/C=C/c2ccco2)cc1,"inconclusive: 4.61 µM [activator, full curve]"
11,CCCC(=O)Nc1ccc(NC(=O)c2ccco2)c(OC)c1,"inconclusive: 18.4 µM [activator, partial curve, poor fit]"
12,CC(C)(C)N1C(=O)c2ccc(C(=O)O)cc2C1=O,inactive
13,COc1ccc(NC(=O)N2CCCCCC2)cc1,"inconclusive: 25.9 µM [activator, partial curve, poor fit]"
14,CCCCS(=O)(=O)N1CCN(S(=O)(=O)c2ccc(Cl)s2)CC1,"inconclusive: 25.9 µM [activator, partial curve, poor fit]"
15,CC1(C)Cc2nc(-c3ccccc3)nc(NNC(=O)c3ccco3)c2CO1,"inconclusive: 6.51 µM [activator, partial curve]"
16,CCCc1cc(C(=O)Nc2nnc(C)s2)cs1,"inconclusive: 13 µM [activator, partial curve]"
17,CCN(CC)c1ccc(/C=N/NC(=O)c2ccc3nc[nH]c3c2)c(O)c1,"inconclusive: 16.4 µM [activator, single point]"
18,CCC(=O)Nc1ccc(NC(=S)NC(=O)c2cc3ccccc3o2)cc1,"inconclusive: 23.1 µM [activator, partial curve, poor fit]"
19,O=C(Nc1nc(-c2ccccn2)cs1)c1ccc(Cl)s1,inactive
20,Nc1nc(N)nc(-c2cccc(Cl)c2Cl)n1,inactive
21,COc1ccccc1/C=C/C(=O)NC(=S)N1CCN(C)CC1,inactive
22,Fc1ccc(F)c(C2=NNC(=Nc3ccccc3F)SC2)c1,"inconclusive: 6.51 µM [activator, partial curve]"
23,N#Cc1ccc2ccn(CC(=O)NCc3ccccc3)c2c1,"inconclusive: 6.51 µM [activator, partial curve, poor fit]"
